Article PMC5700166
The list shows a part of the results, in another mix than the full data. The list includes weakly bound sequences.

What was measured:
Assay in all cases: protein-binding microarray (PBM)
Conditions in all cases: PBM: ~300 nM protein, 6 mM HEPES pH 7.8, 80 mM KCl, 0.5 mM EDTA, 0.5 mM EGTA, 6% glycerol, 35 ng/ul poly-dIdC, 1% milk, 1 h, room temperature; Ap Aiptasia and Nv Nematostella (sea anemones) / Co Capsaspora / Aq Amphimedon (sponge) / Dm Drosophila / Hu human; RHD is the Rel homology domain; high values mean tight binding; most listed sequences are background and not binding sites; double strand, one strand shown
GST-Ap-NF-kB RHD = target: T1, GST-Ap-NF-kB RHD (UniProt A0A913YAJ5)
T1 sequence: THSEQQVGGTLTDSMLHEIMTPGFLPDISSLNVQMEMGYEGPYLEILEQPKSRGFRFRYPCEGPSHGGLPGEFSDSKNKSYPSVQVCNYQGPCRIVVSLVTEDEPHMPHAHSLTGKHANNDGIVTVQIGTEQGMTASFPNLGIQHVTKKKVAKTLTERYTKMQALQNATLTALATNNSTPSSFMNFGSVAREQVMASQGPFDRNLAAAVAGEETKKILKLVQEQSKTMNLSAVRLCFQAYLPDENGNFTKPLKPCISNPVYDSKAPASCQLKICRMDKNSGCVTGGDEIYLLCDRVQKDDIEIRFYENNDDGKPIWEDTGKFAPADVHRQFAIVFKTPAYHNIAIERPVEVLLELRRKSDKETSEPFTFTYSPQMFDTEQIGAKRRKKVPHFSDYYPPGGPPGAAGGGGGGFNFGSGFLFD

[1] = target: T2, GST-Nv-NF-kB (Cys allele) (UniProt E5G601)
T2 sequence: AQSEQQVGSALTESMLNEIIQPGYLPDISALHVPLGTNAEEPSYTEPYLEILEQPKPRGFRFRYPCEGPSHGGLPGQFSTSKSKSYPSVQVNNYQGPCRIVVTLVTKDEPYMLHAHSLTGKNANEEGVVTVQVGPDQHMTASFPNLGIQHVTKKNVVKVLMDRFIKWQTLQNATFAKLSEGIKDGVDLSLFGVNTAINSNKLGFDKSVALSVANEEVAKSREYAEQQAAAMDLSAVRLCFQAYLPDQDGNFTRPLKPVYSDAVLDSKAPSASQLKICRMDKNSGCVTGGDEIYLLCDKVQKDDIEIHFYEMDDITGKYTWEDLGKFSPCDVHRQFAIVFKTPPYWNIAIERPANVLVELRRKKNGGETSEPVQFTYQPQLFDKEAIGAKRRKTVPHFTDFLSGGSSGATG

GST-Co-NF-kB = target: T3, GST-Co-NF-kB (UniProt F1ARL5)
T3 sequence: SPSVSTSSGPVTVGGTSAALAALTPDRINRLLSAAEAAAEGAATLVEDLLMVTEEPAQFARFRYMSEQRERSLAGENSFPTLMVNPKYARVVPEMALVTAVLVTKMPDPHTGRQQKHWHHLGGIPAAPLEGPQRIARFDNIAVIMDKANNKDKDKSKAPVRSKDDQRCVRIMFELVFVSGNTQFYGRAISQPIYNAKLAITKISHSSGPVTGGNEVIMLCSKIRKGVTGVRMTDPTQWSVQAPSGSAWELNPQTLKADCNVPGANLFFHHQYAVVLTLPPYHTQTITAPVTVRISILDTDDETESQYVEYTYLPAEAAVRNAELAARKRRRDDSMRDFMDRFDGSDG

GST-Dm-Relish = target: T4, GST-Dm-Relish (UniProt Q94527)
T4 sequence: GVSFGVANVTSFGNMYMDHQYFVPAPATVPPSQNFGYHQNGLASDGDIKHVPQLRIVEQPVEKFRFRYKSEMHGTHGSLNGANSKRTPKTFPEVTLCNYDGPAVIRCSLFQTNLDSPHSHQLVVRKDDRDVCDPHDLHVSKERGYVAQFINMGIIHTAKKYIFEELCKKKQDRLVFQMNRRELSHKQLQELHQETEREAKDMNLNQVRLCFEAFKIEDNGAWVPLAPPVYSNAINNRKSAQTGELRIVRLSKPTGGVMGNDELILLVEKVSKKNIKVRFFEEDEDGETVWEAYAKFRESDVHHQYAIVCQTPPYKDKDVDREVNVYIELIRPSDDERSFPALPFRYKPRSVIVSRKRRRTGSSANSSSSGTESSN

GST-Aq-NF-kB = target: T5, GST-Aq-NF-kB (UniProt A9Y5G7)
T5 sequence: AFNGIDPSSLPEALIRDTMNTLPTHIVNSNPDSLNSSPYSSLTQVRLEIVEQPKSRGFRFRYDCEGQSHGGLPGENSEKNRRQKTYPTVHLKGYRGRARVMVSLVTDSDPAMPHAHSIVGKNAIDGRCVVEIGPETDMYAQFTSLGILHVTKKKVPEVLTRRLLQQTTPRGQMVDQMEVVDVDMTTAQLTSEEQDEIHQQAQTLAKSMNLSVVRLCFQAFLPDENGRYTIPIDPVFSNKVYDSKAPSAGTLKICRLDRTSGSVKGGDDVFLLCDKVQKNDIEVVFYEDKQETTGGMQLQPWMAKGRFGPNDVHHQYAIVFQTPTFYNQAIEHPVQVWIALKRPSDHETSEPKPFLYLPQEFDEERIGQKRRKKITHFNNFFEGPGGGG

“CCGATTAACATCAAGGAATATCCTGATGTTAATCGGGTCTTGATTCGCTTGACGCTGCTG” was tested. Which binding signal (GST-Ap-NF-kB RHD) did it give?
Its binding signal is -0.456 z-score.

What about the binding signal [1] of the same sequence?
The binding signal was -0.142 z-score.

And the binding signal (GST-Co-NF-kB)?
The binding signal was -0.287 z-score.

And the binding signal (GST-Dm-Relish)?
The binding signal was 0.765 z-score.

And the binding signal (GST-Aq-NF-kB)?
The binding signal was 0.978 z-score.

Which binding signal (GST-Ap-NF-kB RHD) does the source give for “CCGATTAACATCAAGTGAATTCCTGATGTTAATCGGGTCTTGATTCGCTTGACGCTGCTG” here?
The binding signal was -0.171 z-score.

And the binding signal [1]?
The binding signal was 0.145 z-score.

What about the binding signal (GST-Co-NF-kB) of the same sequence?
Its binding signal is 0.344 z-score.

And the binding signal (GST-Dm-Relish)?
The binding signal was 3.49 z-score.

What about the binding signal (GST-Aq-NF-kB) of the same sequence?
Its binding signal is 0.625 z-score.

Which results are given for “CCGATTAACATCACGTGTCACGCTGATGTTAATCGGGTCTTGATTCGCTTGACGCTGCTG”?
binding signal (GST-Ap-NF-kB RHD): -0.483 z-score; binding signal [1]: 0.234 z-score; binding signal (GST-Co-NF-kB): -1.1 z-score; binding signal (GST-Dm-Relish): -0.785 z-score; binding signal (GST-Aq-NF-kB): -0.601 z-score

How did the binding signal (GST-Ap-NF-kB RHD) turn out when “CCGATTAACATCAGCAGGTGCCATGATGTTAATCGGGTCTTGATTCGCTTGACGCTGCTG” was run?
The binding signal was 0.12 z-score.

And the binding signal [1]?
The binding signal was -0.255 z-score.

What about the binding signal (GST-Co-NF-kB) of the same sequence?
The binding signal was -0.787 z-score.

What about the binding signal (GST-Dm-Relish) of the same sequence?
Its binding signal is -1.07 z-score.

And the binding signal (GST-Aq-NF-kB)?
The binding signal was -0.474 z-score.

Which binding signal (GST-Ap-NF-kB RHD) does the source give for “CCGATTAACATCAGCATAATATATGATGTTAATCGGGTCTTGATTCGCTTGACGCTGCTG” here?
Its binding signal is 0.0409 z-score.

And the binding signal [1]?
Its binding signal is -0.0481 z-score.

And the binding signal (GST-Co-NF-kB)?
Its binding signal is 0.575 z-score.

And the binding signal (GST-Dm-Relish)?
Its binding signal is 0.139 z-score.

What about the binding signal (GST-Aq-NF-kB) of the same sequence?
Its binding signal is 0.0876 z-score.

What does the source list for “CCGATTAACATCATCGGATCTGTTGATGTTAATCGGGTCTTGATTCGCTTGACGCTGCTG”?
binding signal (GST-Ap-NF-kB RHD): -0.111 z-score; binding signal [1]: -0.838 z-score; binding signal (GST-Co-NF-kB): -1.37 z-score; binding signal (GST-Dm-Relish): -1.04 z-score; binding signal (GST-Aq-NF-kB): -0.465 z-score

With “CCGATTAACATCATTTTTAAACCTGATGTTAATCGGGTCTTGATTCGCTTGACGCTGCTG” as the sequence, how does the binding signal (GST-Ap-NF-kB RHD) read?
The binding signal was -0.206 z-score.

And the binding signal [1]?
Its binding signal is -0.0258 z-score.

What about the binding signal (GST-Co-NF-kB) of the same sequence?
The binding signal was 0.221 z-score.

What about the binding signal (GST-Dm-Relish) of the same sequence?
Its binding signal is 0.168 z-score.

And the binding signal (GST-Aq-NF-kB)?
The binding signal was -0.151 z-score.

How did the binding signal (GST-Ap-NF-kB RHD) turn out when “CCGATTAACATCACTGCGTCAAATGATGTTAATCGGGTCTTGATTCGCTTGACGCTGCTG” was run?
Its binding signal is -0.324 z-score.

What about the binding signal [1] of the same sequence?
The binding signal was -0.504 z-score.

And the binding signal (GST-Co-NF-kB)?
The binding signal was -0.596 z-score.

And the binding signal (GST-Dm-Relish)?
The binding signal was -0.247 z-score.

And the binding signal (GST-Aq-NF-kB)?
The binding signal was -0.624 z-score.

Which results are given for “CCGATTAACATCATTAATTCGGATGATGTTAATCGGGTCTTGATTCGCTTGACGCTGCTG”?
binding signal (GST-Ap-NF-kB RHD): -0.903 z-score; binding signal [1]: -0.498 z-score; binding signal (GST-Co-NF-kB): -1.25 z-score; binding signal (GST-Dm-Relish): -0.68 z-score; binding signal (GST-Aq-NF-kB): -0.387 z-score

With “CCGATTAACATCAGACCATTTCGTGATGTTAATCGGGTCTTGATTCGCTTGACGCTGCTG” as the sequence, how does the binding signal (GST-Ap-NF-kB RHD) read?
The binding signal was 0.445 z-score.

And the binding signal [1]?
Its binding signal is -0.127 z-score.

What about the binding signal (GST-Co-NF-kB) of the same sequence?
The binding signal was 0.523 z-score.

What about the binding signal (GST-Dm-Relish) of the same sequence?
Its binding signal is -0.299 z-score.

And the binding signal (GST-Aq-NF-kB)?
The binding signal was 0.0353 z-score.

Which results are given for “CCGATTAACATCAAATTTCCAGGTGATGTTAATCGGGTCTTGATTCGCTTGACGCTGCTG”?
binding signal (GST-Ap-NF-kB RHD): 0.0388 z-score; binding signal [1]: 0.257 z-score; binding signal (GST-Co-NF-kB): 0.76 z-score; binding signal (GST-Dm-Relish): 0.661 z-score; binding signal (GST-Aq-NF-kB): 0.752 z-score

Which binding signal (GST-Ap-NF-kB RHD) does the source give for “CCGATTAACATCAGAATTTCCAATGATGTTAATCGGGTCTTGATTCGCTTGACGCTGCTG” here?
The binding signal was -0.195 z-score.

What about the binding signal [1] of the same sequence?
Its binding signal is 0.138 z-score.

What about the binding signal (GST-Co-NF-kB) of the same sequence?
The binding signal was -0.00145 z-score.

And the binding signal (GST-Dm-Relish)?
The binding signal was 0.687 z-score.

And the binding signal (GST-Aq-NF-kB)?
The binding signal was 0.821 z-score.

With “CCGATTAACATCATTATATCTCATGATGTTAATCGGGTCTTGATTCGCTTGACGCTGCTG” as the sequence, how does the binding signal (GST-Ap-NF-kB RHD) read?
The binding signal was -1.02 z-score.

What about the binding signal [1] of the same sequence?
The binding signal was 0.011 z-score.

And the binding signal (GST-Co-NF-kB)?
Its binding signal is 0.152 z-score.

What about the binding signal (GST-Dm-Relish) of the same sequence?
The binding signal was -0.145 z-score.

What about the binding signal (GST-Aq-NF-kB) of the same sequence?
The binding signal was -0.27 z-score.
